From patent US20260207762A1 (ANAVEON, published 2026)

B1: XFO227 (other)
heavy: EVQLVQSGAEVKKPGESLKISCKGSGYAFTNYLIEWVRQMPGKGLEWMGVINPGSGGTNYNEKFKGQVTISADKSISTAYLQWSSLKASDTAMYYCARWRGEGYYAYFDVWGQGTTVTVSSASTKGPSVFPLAPSSKSTSGGTAALGCLVKDYFPEPVTVSWNSGALTSGVHTFPAVLQSSGLYSLSSVVTVPSSSLGTQTYICNVNHKPSNTKVDKRV[not shown - human IgG1 Fc with changes]
light: AIRLTQSPSSFSASTGDRVTITCKASQSVDYGGNFHLRPRDLISNINVIVLELKGSETTFMCEYADETATIVEFLNRWITFSQSIISTLTPTSSSTKKTQLQLEHLLLDLQMILNGINNYKNPKLTRMLTFKFYMPKKATELKHLQCLEEELKPLEEVLNLAQSKGGGDSYMNWYQQKPGKAPKLLIYAASNLESGVPSRFSGSGSGTDFTLTISSLQSEDFATYYCQQSNEDPYTFGGGTKVEIKRTVAAPSVFIFPPSDEQLKSGTASVVCLLNNFYPREAKVQWKVDNALQSGNSQESVTEQDSKDSTYSLSSTLTLSKADYEKHKVYACEVTHQGLSSPVTKSFNRGEC
B2: DRO069 (other)
heavy: QVQLVESGGGVVQPGRSLRLSCAASGYTFSSYLIEWVRQAPGKGLEWVAVINPGSGGTNYADSVKGRFTISADKSKNTAYLQMNSLRAEDTAVYYCARWRGDGYYAYFDVWGQGTTVTVSSASTKGPSVFPLAPSSKSTSGGTAALGCLVKDYFPEPVTVSWNSGALTSGVHTFPAVLQSSGLYSLSSVVTVPSSSLGTQTYICNVNHKPSNTKVDKRV[not shown - human IgG1 Fc with changes]
light: EIVLTQSPATLSVSPGERATLSCRASQSVSYGGGNFHLRPRDLISNINVIVLELKGSETTFMCEYADETATIVEFLNRWITFSQSIISTLTPTSSSTKKTQLQLEHLLLDLQMILNGINNYKNPKLTRMLTFKFYMPKKATELKHLQCLEEELKPLEEVLNLAQSKGGGGDSYMNWYQQKPGQAPRLLIYAASNLASGIPARFSGSGSGTEFTLTISSLQSEDAAVYYCQQSNEDPYTFGGGTKVEIKRTVAAPSVFIFPPSDEQLKSGTASVVCLLNNFYPREAKVQWKVDNALQSGNSQESVTEQDSKDSTYSLSSTLTLSKADYEKHKVYACEVTHQGLSSPVTKSFNRGEC
B3: ECV200 (other)
heavy: QVQLVESGGGVVQPGRSLRLSCAASGYTFSSYLIEWVRQAPGKGLEWVAVINPGSGGTNYADSVKGRFTISADKSKNTAYLQMNSLRAEDTAVYYCARWRGDGYYAYFDVWGQGTTVTVSSASTKGPSVFPLAPSSKSTSGGTAALGCLVKDYFPEPVTVSWNSGALTSGVHTFPAVLQSSGLYSLSSVVTVPSSSLGTQTYICNVNHKPSNTKVDKRV[not shown - human IgG1 Fc with changes]
light: EIVLTQSPATLSVSPGERATLSCRASQSVSYGGGGSGNFHLRPRDLISNINVIVLELKGSETTFMCEYADETATIVEFLNRWITFSQSIISTLTPTSSSTKKTQLQLEHLLLDLQMILNGINNYKNPKLTRMLTFKFYMPKKATELKHLQCLEEELKPLEEVLNLAQSKGGGGSGGDSYMNWYQQKPGQAPRLLIYAASNLASGIPARFSGSGSGTEFTLTISSLQSEDAAVYYCQQSNEDPYTFGGGTKVEIKRTVAAPSVFIFPPSDEQLKSGTASVVCLLNNFYPREAKVQWKVDNALQSGNSQESVTEQDSKDSTYSLSSTLTLSKADYEKHKVYACEVTHQGLSSPVTKSFNRGEC
B4: BFC885 (other)
heavy: QVQLVESGGGVVQPGRSLRLSCAASGYTFSSYLIEWVRQAPGKGLEWVAVINPGSGGTNYADSVKGRFTISADKSKNTAYLQMNSLRAEDTAVYYCARWRGDGYYAYFDVWGQGTTVTVSSASTKGPSVFPLAPSSKSTSGGTAALGCLVKDYFPEPVTVSWNSGALTSGVHTFPAVLQSSGLYSLSSVVTVPSSSLGTQTYICNVNHKPSNTKVDKRV[not shown - human IgG1 Fc with changes]
light: EIVLTQSPATLSVSPGERATLSCRASQSVSYGGGGSGGGGSGGGNFHLRPRDLISNINVIVLELKGSETTFMCEYADETATIVEFLNRWITFSQSIISTLTPTSSSTKKTQLQLEHLLLDLQMILNGINNYKNPKLTRMLTFKFYMPKKATELKHLQCLEEELKPLEEVLNLAQSKGGGGSGGGGSGGGGDSYMNWYQQKPGQAPRLLIYAASNLASGIPARFSGSGSGTEFTLTISSLQSEDAAVYYCQQSNEDPYTFGGGTKVEIKRTVAAPSVFIFPPSDEQLKSGTASVVCLLNNFYPREAKVQWKVDNALQSGNSQESVTEQDSKDSTYSLSSTLTLSKADYEKHKVYACEVTHQGLSSPVTKSFNRGEC

Biological target: IL-2R on NK cells and CD8 T cells of murine splenocytes (C57BL/6 mice) (mouse)
Test: cell-based or functional assay

Binder	EC50 CD8 cells (nM), pSTAT5+ cells in mouse splenocytes [nM]	EC50 NK cells (nM), pSTAT5+ cells in mouse splenocytes [nM]
B1	8	
B2		0.9
B3		0.9
B4		2
